Data from PubChem BioAssay AID1346428 (National Center for Advancing Translational Sciences (NCATS), 2018).
“And” between values parts separate entries of the source, which are not always exact repeats. Equal entries are not always repeated. Among all 48,000 compounds or so, about 1,200 (2.5%) were called active. Another 2% or so got no clear call; they are omitted.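 Rule for the calls: active = activation of at least 60% and not above a set upper limit (about 1 call in 100 departs from these limits); inconclusive = activation of 40% to 60%, or above that upper limit; inactive = activation under 40%.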 The list shows a part of the results.

target: Probable G-protein coupled receptor 32 (Homo sapiens) (UniProt O75388); assay: qHTS for Agonists of Human Resolvin D1 Receptor DRV1; conditions: CHO-K1 GPR32 beta-arrestin PathHunter luminescence, 90 min; at 76.9 µM; active compounds read high; zero percent set by DMSO-only wells; note: 0% is about no effect
Procedure, shortened: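 PathHunter beta-arrestin recruitment in CHO-K1 cells stably expressing ProLink-tagged GPR32. Cells were exposed to compound for 90 min at 37 C, then chemiluminescence was read after 1 h detection at ambient temperature; DMSO served as basal control.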

Sequence of UniProt O75388 (O75388 whole entry, looked up): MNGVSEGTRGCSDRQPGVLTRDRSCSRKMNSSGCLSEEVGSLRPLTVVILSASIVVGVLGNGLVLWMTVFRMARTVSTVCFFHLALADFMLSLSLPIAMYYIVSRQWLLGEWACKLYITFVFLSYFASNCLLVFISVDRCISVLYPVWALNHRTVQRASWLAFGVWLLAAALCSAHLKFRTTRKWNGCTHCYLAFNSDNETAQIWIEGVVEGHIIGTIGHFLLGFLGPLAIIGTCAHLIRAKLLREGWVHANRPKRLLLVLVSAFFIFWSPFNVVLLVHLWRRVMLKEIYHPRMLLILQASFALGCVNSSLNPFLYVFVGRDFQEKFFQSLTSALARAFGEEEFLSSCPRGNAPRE

activation, inactive:
O=C(CC1N=C2c3ccccc3N=C(SCc3ccc(F)cc3)N2C1=O)NC1CCCCC1 (stereo not drawn) -16.2%
CCOc1ccc(N(C(=O)c2ccc(Cl)cc2)S(=O)(=O)c2ccc3c(c2)n(C)c(=O)n3C)cc1 -6.23%
Cc1cccc(NC(=O)Cn2c(=O)n(Cc3ccccc3)c(=O)c3sc4ccccc4c32)c1 -0.886%
Fc1ccc(-c2noc3ncnc(Nc4ccc(F)cc4F)c23)cc1 22.9%
CCc1cccc(C)c1Nc1c(-c2ccc(SC)cc2)nc2sccn12 -13.4%
Cc1ccc(CNc2nc3ccc(Cl)cc3n3cnnc23)cc1 -25.9%
COC(=O)c1ccccc1NC(=O)C1=CC(c2ccc3c(c2)OCO3)=NS(=O)(=O)N1C 4.8%
COc1ccc(S(=O)(=O)c2c(Nc3c(C)cccc3C)sc(C(=O)c3ccc(F)cc3)c2N)cc1 -22.7%
Cc1cccc(-c2nc(CCNC(=O)COc3ccccc3)cs2)c1 -23.2%
Cc1cccc(NC(=O)CSc2ncc(-c3ccc(Br)cc3)[nH]2)c1 -33.9%
O=C(CSc1ccc(-c2cccs2)nn1)Nc1ccccc1 7.42%
Cc1ccc(CN(Cc2ccco2)C(=O)c2ccc(Cl)cc2Cl)cc1 9.47%
COc1ccc(CCNC(=O)Cn2nnc(-c3ccc(Cl)cc3)n2)cc1OC -9.45%
COc1ccc(-c2cc(-c3ccccc3)nc(SCC(=O)Nc3ccccc3C)c2C#N)cc1 -6.44%
COc1cccc(CNc2nc3ccccc3c3nc(-c4cccc(C)c4)nn23)c1 -15.9%
CCN1CCc2nc(N)oc2CC1 7.77% and -1.86%
CC(=O)c1cccc(NC(=O)Nc2c(C)n(C)n(-c3ccccc3)c2=O)c1 -1.39%
CCN1CCc2c(sc(NC(=O)c3ccc(S(=O)(=O)N(CCOC)CCOC)cc3)c2C(N)=O)C1 -45.3%
Cc1ccc(-c2nc3cc(NC(=O)c4cc5ccccc5o4)ccc3o2)cc1Cl 10.9%
CCOCCCn1c(SCC(=O)Nc2cc(C)ccc2C)nc2c(oc3ccccc32)c1=O 7.73%
COC(=O)c1ccc(NC(=O)CN2CCCN(Cc3ccc(Cl)cc3)S2(=O)=O)cc1 7.73%
CC(NC(=O)CN1C(=O)COc2ccc(S(=O)(=O)N3CCCCCC3)cc21)c1ccccc1 (stereo not drawn) -40.3%
Cc1ccc(Sc2c(C(=O)NCc3cccc(F)c3)[nH]c3ccccc23)cc1 0.638%
CC(C)Oc1ccc(CN2CCc3nc(Nc4ccc5c(c4)OCCO5)ncc3C2)cc1 -25.6%
CN(C)CCNC(=O)c1ccc(-n2c(-c3ccccc3)cc3c2CCCCC3)cc1 -25.2%
Cc1[nH]n(-c2ccccc2)c(=O)c1C(c1cc(Cl)ccc1O)c1c(C)[nH]n(-c2ccccc2)c1=O -31.6%
CC1=C(C(=O)Nc2ccccc2)C(c2ccccc2C)n2nc(SCC(=O)c3ccc(C)cc3)nc2N1 (stereo not drawn) -13.8%
COCCCNc1nc2c(S(=O)(=O)c3ccccc3)nnn2c2ccc(Cl)cc12 3.4%
O=C(NCc1cccs1)c1nn(-c2ccccc2Cl)nc1CO -8.05%
CCOC(=O)c1ccccc1NC(=O)N1CCN(Cc2cc(=O)n3nc(-c4ccccc4)sc3n2)CC1 2.83%
Cc1cccc(NC(=O)CSc2nc(-c3cccs3)cc(C(F)(F)F)c2C#N)c1C -11.9%
COC(=O)c1c(-c2cccs2)csc1NC(=O)c1cccc(Cl)c1 -16.8%
COC(=O)c1c(-c2cccs2)csc1NC(=O)c1ccc(Br)cc1 33.7%
CCOc1ccc(-c2cc(CCCC(=O)NCCc3ccc(Cl)cc3)no2)cc1 1.29%
O=C(NCCc1csc(-c2ccc(C(F)(F)F)cc2)n1)c1ccc(F)c(F)c1 41%
CCc1ccc(NC(=O)CCS(=O)(=O)c2cc3c(cc2Cl)NC(=O)CO3)cc1 -0.978%
CCN(c1cccc(C)c1)S(=O)(=O)c1ccc(-n2cccn2)cc1 23.7%
Cc1ccc(-c2cc(C(=O)NCc3cnn(C)c3C)c3ccccc3n2)cc1C 31.3%
Cc1ccc(C(=O)N2CCc3cc(CNC(=O)CSc4ccccc4)ccc32)cc1 -36.3%
CCN(c1ccccc1)S(=O)(=O)c1cc(Br)cc2c1N(C(=O)C1CC1)CC2 -8.21%
Cc1cccc(-c2c3c(=O)n(C)c(=O)n(C)c3c3c(C)nc4ccccc4n23)c1 -7.69%
N#Cc1ccc(S(=O)(=O)N2CCC(Oc3cccc(C(F)(F)F)c3)CC2)cc1 -6.12%
COc1ccc(CNC(=O)C(=O)Nc2c3c(nn2-c2ccccc2)CSC3)cc1 -29.3%
COc1cc(OC)c(OC)cc1CN1CCc2nc(Nc3ccc4c(c3)OCCO4)ncc2C1 -8.15%
CCCNC(=O)C1=CC(c2ccc3c(c2)OCO3)=NS(=O)(=O)N1C -3.12%
COc1cccc(C2c3c(oc4cc(C)cc(C)c4c3=O)C(=O)N2CCc2ccc(OC)c(OC)c2)c1 (stereo not drawn) -2.91%
COc1ccc(NC(=O)CCS(=O)(=O)c2nc(-c3cccs3)cc(C(F)(F)F)n2)cc1 -31.6%
CCCc1cc(=O)n2c(C(=O)Nc3ccc(OCC)cc3)c(C(=O)Nc3ccc(C)cc3)sc2n1 1.3%
CN(CC(=O)NCc1ccc(Cl)cc1)S(=O)(=O)c1ccc2[nH]c3c(c2c1)CCCC3 11.4%
COc1ccc(CNc2nc(-c3ccccc3)nn2S(=O)(=O)c2ccccc2)cc1 -4.79%
COc1ccccc1CNC(=O)CCC1N=C2c3ccccc3N=C(SCC(=O)Nc3ccc(F)cc3)N2C1=O (stereo not drawn) -14.5%
Cc1ccc2c(c1)c1c(c(=O)n(-c3cccc(Cl)c3)c(=O)n1CC(=O)NCCC1=CCCCC1)n2C -4.16%
CCn1c(SCc2ccccc2C)nc(=O)c2c(C(=O)OC)cc(C3CC3)nc21 -7.59%
